Test results: PubChem BioAssay AID504332 (National Center for Advancing Translational Sciences (NCATS), 2011)
Out of some 350,000 compounds screened, about 31,000 (8.9%) were called active. This list was built around the results that the source calls inconclusive (neither active nor inactive); the mix of calls is not that of the screen. Calls come from the whole dose curve; as a rule, active = well fitted inhibition curve with a large enough effect; inconclusive = small, poorly fitted or top-dose-only effect; inactive = no such curve, though single readings can be large or run the other way. A potency beside an inconclusive call is a rough fit, not a confirmed value.

biological target: Histone-lysine N-methyltransferase EHMT2 (Homo sapiens) (UniProt Q96KQ7); assay: qHTS Assay for Inhibitors of Histone Lysine Methyltransferase G9a; conditions: G9a H3K9 monomethylation, AlphaScreen, 2 h; activity, negative = inhibition: at 59 µM (top of the series) unless noted; note: nearly all actives have a fitted effect of over 75% in size
In short: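 AlphaScreen read-out: biotin-H3K9 peptide (500 nM) methylation by 20 nM enzyme with 20 uM SAM, 2 h at room temperature after 15 min compound preincubation; anti-monomethyl H3K9 antibody plus donor/acceptor beads, 10 min dark.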
% is set by controls: 0 for no effect and ±100 for the full control effect; potency is the fitted concentration of half-maximal effect; tags give direction and shape of the fitted curve.

Sequence of UniProt Q96KQ7 (Q96KQ7 whole entry, looked up): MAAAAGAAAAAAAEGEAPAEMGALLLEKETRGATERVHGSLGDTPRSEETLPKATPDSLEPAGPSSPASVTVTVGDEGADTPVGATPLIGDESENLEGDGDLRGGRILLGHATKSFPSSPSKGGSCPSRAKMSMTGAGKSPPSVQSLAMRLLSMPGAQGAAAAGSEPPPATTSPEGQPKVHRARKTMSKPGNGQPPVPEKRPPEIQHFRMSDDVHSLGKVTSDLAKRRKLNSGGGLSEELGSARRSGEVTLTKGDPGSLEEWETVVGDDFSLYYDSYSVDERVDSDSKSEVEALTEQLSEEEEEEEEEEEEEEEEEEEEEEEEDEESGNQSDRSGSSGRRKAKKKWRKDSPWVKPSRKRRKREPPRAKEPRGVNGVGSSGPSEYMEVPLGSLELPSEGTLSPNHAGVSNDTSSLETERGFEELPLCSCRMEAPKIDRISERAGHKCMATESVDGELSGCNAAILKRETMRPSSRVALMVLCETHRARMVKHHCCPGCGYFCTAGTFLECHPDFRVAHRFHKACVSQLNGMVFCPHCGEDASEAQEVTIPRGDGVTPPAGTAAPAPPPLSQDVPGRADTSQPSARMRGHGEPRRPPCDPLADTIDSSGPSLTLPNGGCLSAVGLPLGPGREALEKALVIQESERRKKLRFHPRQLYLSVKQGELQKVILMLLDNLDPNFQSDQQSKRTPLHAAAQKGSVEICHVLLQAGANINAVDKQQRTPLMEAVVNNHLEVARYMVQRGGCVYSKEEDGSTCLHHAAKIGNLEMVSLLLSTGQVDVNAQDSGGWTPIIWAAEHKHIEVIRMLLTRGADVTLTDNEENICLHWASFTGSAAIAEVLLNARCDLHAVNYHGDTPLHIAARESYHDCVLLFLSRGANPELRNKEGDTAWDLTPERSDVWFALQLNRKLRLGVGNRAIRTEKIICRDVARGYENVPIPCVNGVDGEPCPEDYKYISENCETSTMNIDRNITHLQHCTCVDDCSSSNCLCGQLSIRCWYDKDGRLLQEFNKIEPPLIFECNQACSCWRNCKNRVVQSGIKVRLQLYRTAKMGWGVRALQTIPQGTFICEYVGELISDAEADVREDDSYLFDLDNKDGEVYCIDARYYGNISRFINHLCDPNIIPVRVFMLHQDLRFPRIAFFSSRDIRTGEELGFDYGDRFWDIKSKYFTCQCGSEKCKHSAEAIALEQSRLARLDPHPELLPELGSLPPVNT

Row | Compound | Potency | activity, negative = inhibition
1 | Cc1nn(CCCC(=O)Nc2ccc(Br)cc2F)c(C)c1[N+](=O)[O-] | inconclusive: 50.1 µM [inhibitor, partial curve] | –
2 | CN1N=C(C(=O)N2CCc3c([nH]c4ccccc34)C2c2ccccc2Cl)CCC1=O (configuration not stated) | inconclusive: 89.1 µM [inhibitor, single point] | –
3 | N#C/C(=C/c1ccc(N2CCCCC2)o1)C(=O)NCCc1c[nH]c2ccccc12 | active: 31.6 µM | –
4 | Cn1c(CNc2nc(-c3ccccc3)cs2)nnc1SCC(=O)N1CCc2ccccc21 | – | inconclusive: -69.6% [inhibitor]
5 | COc1cccc(CNC2CCCC2)c1 | inconclusive: 35.5 µM [inhibitor, single point] | –
6 | CCOc1ccc(C(=O)N/N=C/c2ccccc2[N+](=O)[O-])cc1 | – | inactive: 14.6% [at 102 µM]
7 | CCc1cccc(OCC(=O)Nc2ccc(S(=O)(=O)Nc3cc(C)nc(C)n3)cc2)c1 | inconclusive: 35.5 µM [inhibitor, partial curve, poor fit] | –
8 | Cc1c(C(=O)CN2CCOCC2)[nH]c2ccccc12 | active: 39.8 µM | –
9 | COc1ccc(OC)c(CCNC(=O)c2ccc3c(c2)N(Cc2ccc(C)cc2)CCS3)c1 | inconclusive: 3.55 µM [inhibitor, partial curve, poor fit] | –
10 | COc1ccc(F)cc1S(=O)(=O)NCCc1c(C)[nH]c2c(Cl)cccc12 | – | inactive: -0.675%
11 | c1ccc(CN2CCC(N3CCN(Cc4ccc5c(c4)OCO5)CC3)CC2)cc1 | – | inactive: -8.87%
12 | Cc1ccc(S(=O)(=O)Cc2ccc(C(=O)N3CCCC3)o2)cc1 | inconclusive: 70.8 µM [inhibitor, single point] | –
13 | COc1cc(/C=N/NC(=O)c2cncc(Br)c2)cc([N+](=O)[O-])c1O | inconclusive: 79.4 µM [inhibitor, single point] | –
14 | OC(CNCCCN1CCCCC1)COc1ccccc1 (configuration not stated) | inconclusive: 89.1 µM [inhibitor, single point] | –
15 | CC(=O)N1CCN(c2ccc(NC(=O)c3ccc(Br)o3)cc2Cl)CC1 | inconclusive: 56.2 µM [inhibitor, partial curve, poor fit] | –
16 | CCOc1ccc(NC(=S)C(C#N)=C2N(C)c3ccccc3N2C)cc1 | active: 31.6 µM | –
17 | Cc1ccc(CNC(=O)c2ccc(OCC(C)C)cc2)n1C | active: 44.7 µM | –
18 | CCCNC(=S)Nc1ccc(Cl)cc1Cl | – | inactive: 14.8% [at 102 µM]
19 | COc1ccc(Nc2cc(C(=O)NCCc3ccc(C)cc3)c3ccccc3n2)c(OC)c1 | – | inactive: -21.7%
20 | Cc1cccc2sc(NNC(=O)c3ccc4c(c3)OCCO4)nc12 | active: 10 µM | –
21 | Cc1ccccc1-c1cc(N2CCNCC2)ncn1 | – | inactive: -0.988% [at 0.501 µM]
22 | CCOC(=O)Nc1sc(NS(=O)(=O)c2ccccc2)nc1C | inconclusive: 79.4 µM [inhibitor, single point] | –
23 | COc1ccc2oc(C(=O)OCC(=O)N(C)CC(=O)Nc3ccc(C)cc3)c(C)c2c1 | active: 50.1 µM | –
24 | COc1ccc(N(S(=O)(=O)c2ccccc2)S(=O)(=O)c2ccccc2)c(N)c1 | – | inactive: -11.2% [at 2.33 µM]

Row | Compound | Potency | activity, negative = inhibition
25 | CC1CC(C)CN(C(=O)c2cccc(S(=O)(=O)Nc3cc(C(F)(F)F)ccc3Cl)c2)C1 (configuration not stated) | inconclusive: 89.1 µM [inhibitor, single point] | –
26 | COc1ccc(-c2[nH]ncc2/C=N/NC(=O)c2cc(Br)ccc2O)c(OC)c1 | inconclusive: 20 µM [inhibitor, single point] | –
27 | CCN(CC)CCN1C(=O)C(=O)/C(=C(/O)c2ccc(OC)cc2)C1c1ccco1 (configuration not stated) | active: 39.8 µM | –
28 | NC(=S)Nc1cccc(F)c1 | inconclusive: 56.2 µM [inhibitor, partial curve] | –
29 | COc1ccc(-c2ocnc2C(=O)N2CCN(C(c3ccccc3)c3ccccc3)CC2)cc1 | inconclusive: 15.8 µM [inhibitor, partial curve] | –
30 | Cc1ccc(S(=O)(=O)Cn2nnnc2C(CC(C)C)N2CCN(C(=O)c3ccco3)CC2)cc1 (configuration not stated) | inconclusive: 89.1 µM [inhibitor, single point] | –
31 | COc1ccc2c(c1)C(=O)N(c1ccccc1)C(=O)C2 | inconclusive: 28.2 µM [inhibitor, single point] | –
32 | CCCS(=O)(=O)N1CCCC(C(=O)Oc2ccc(OC)cc2)C1 (configuration not stated) | – | inactive: 62% [at 102 µM]
33 | COc1ccc(Cl)cc1NC(=O)c1sc(-n2nc(C)c(Cc3ccccc3)c2C)nc1C | – | inactive: 5.3%
34 | COC(=O)c1ccc(NC(=S)NC(=O)c2c(Cl)cnn2C)cc1 | inconclusive: 10 µM [inhibitor, partial curve] | –
35 | Cc1cc(S(=O)(=O)N2CCC3(CC2)OCCN3S(=O)(=O)c2cccs2)ccc1F | – | inactive: 2.05% [at 102 µM]
36 | O=C(CCCOc1ccc(Br)cc1)NNC(=O)c1ccncc1 | inconclusive: 89.1 µM [inhibitor, partial curve, poor fit] | –
37 | O=C(NCc1cccnc1)NC(C(F)(F)F)C(F)(F)F | – | inactive: 10.9% [at 102 µM]
38 | CCN1CCN(c2ccc(N=Cc3ccccc3O)cc2)CC1 | active: 50.1 µM | –
39 | COc1cccc(C2CC(c3cccc(NS(C)(=O)=O)c3)=NN2C(=O)c2ccccc2)c1OC (configuration not stated) | – | inactive: -42.1%
40 | COc1ccc(N2CCN(c3oc(/C=C/c4ccc(F)cc4)nc3C#N)CC2)cc1 | inconclusive: 10 µM [inhibitor, partial curve] | –
41 | COCCCNC(=O)CSC1=Nc2ccccc2C2=NC(CCC(=O)NCc3ccccc3OC)C(=O)N12 (configuration not stated) | – | inactive: 22.1%
42 | COc1ccc(C)cc1NC(=O)CCCN1C(=O)NC(C)(C)C1=O | – | inactive: 20.4% [at 2.33 µM]
43 | Cc1cc(Oc2ccc(C#N)cc2)nc(NCc2ccccc2)n1 | – | inactive: -19.2% [at 102 µM]
44 | COc1ccc(NC(=O)N2c3ccccc3C(C)=CC2(C)C)cc1 | inconclusive: 11.2 µM [inhibitor, partial curve] | –
45 | CCOc1cc(C(=O)N2CC(=O)Nc3ccc(C)cc3C2c2ccccc2)cc(OCC)c1OCC (configuration not stated) | – | inactive: 6.33%
46 | CN(C)c1cc2c(cc1NC(=O)c1ccccc1Cl)n(C)c(=O)n2C | – | inactive: -23.5% [at 102 µM]
47 | O=C(Nc1ccc(S(=O)(=O)N2CCCC2)cc1)c1cncc(Br)c1 | – | inactive: -1.77%
48 | Cc1nnc(SCc2ccccc2)c2cc3sccc3n12 | – | inactive: 5.9%

Row | Compound | Potency | activity, negative = inhibition
49 | CCOC(=O)c1c(C)[nH]c(C)c1C(=O)COC(=O)c1cccc(C)c1O | inconclusive: 89.1 µM [inhibitor, single point] | –
50 | COC(=O)c1cccnc1 | inconclusive: 14.1 µM [inhibitor, partial curve] | –
51 | CNNC(=S)Nc1cccc(SC)c1 | inconclusive: 35.5 µM [inhibitor, partial curve, poor fit] | –
52 | Cc1ccc([C@@H]2CC=C(C(=O)O)CN2S(=O)(=O)c2ccc(C)cc2)cc1 | – | inactive: -3.95% [at 2.33 µM]
53 | Nc1ccc(OCc2ccco2)cc1 | inconclusive: 3.16 µM [inhibitor, partial curve, poor fit] | –
54 | CCOc1ccc(C2/C(=C(\O)c3ccc4c(c3)OCCO4)C(=O)C(=O)N2CCCN2CCOCC2)cc1OC (configuration not stated) | inconclusive: 79.4 µM [inhibitor, single point] | –
55 | Cc1[nH]n(-c2ccccc2)c(=O)c1C=Nc1cccc2cccnc12 | inconclusive: 39.8 µM [inhibitor, single point] | –
56 | COc1cc(Br)c(CC(=O)O)cc1OC | inconclusive: 89.1 µM [inhibitor, partial curve, poor fit] | –
57 | COc1ccc(N2C(=O)C(Cl)=C(Nc3ccccc3OC)C2=O)cc1 | active: 44.7 µM | –
58 | O=C(O)CCc1ccc(-c2cccs2)o1 | inconclusive: 0.562 µM [inhibitor, full curve, poor fit] | –
59 | CC(=O)N1c2ccc(S(=O)(=O)NCC3CCC(C(=O)Nc4ncccc4C)CC3)cc2CC1C (configuration not stated) | – | inactive: 75.6% [at 102 µM]
60 | O=C(NCCN1C(=O)S/C(=C\c2ccc(Cl)cc2)C1=O)c1ccc(F)c(S(=O)(=O)N2CCOCC2)c1 | inconclusive: 3.16 µM [inhibitor, single point] | –
61 | COC(=O)c1sccc1NC(=S)Nc1ccc(OC)cc1 | inconclusive: 44.7 µM [inhibitor, partial curve, poor fit] | –
62 | CCOC(=O)c1oc2cccc(OCC(O)CNC(C)C)c2c1C (configuration not stated) | inconclusive: 0.794 µM [inhibitor, full curve, poor fit] | –
63 | O=[N+]([O-])c1ccc(-c2nc(-c3ccc(F)cc3)c(-c3ccncc3)[nH]2)cc1 | active: 35.5 µM | –
64 | Cc1cccc(S(=O)(=O)C(C#N)c2nc3ccccc3nc2N2CCCC2)c1 (configuration not stated) | inconclusive: 1.41 µM [inhibitor, single point] | –
65 | COC(=O)CSc1nnc(-c2cccnc2)n1-c1cc(OC)cc(OC)c1 | inconclusive: 79.4 µM [inhibitor, single point] | –
66 | N#Cc1c(SCc2ccc(Cl)cc2)sc(C(=O)c2ccccc2)c1N | – | inactive: -3.49% [at 102 µM]
67 | Cc1cc(C)cc(OC(C)C(=O)Nc2nonc2-c2ccc(Br)cc2)c1 (configuration not stated) | inconclusive: 31.6 µM [inhibitor, partial curve, poor fit] | –
68 | CC(C)n1c(O)c(/C=C2\C=NN=C2c2ccccc2)sc1=S | inconclusive: 3.55 µM [inhibitor, partial curve, poor fit] | –
69 | Cc1ccccc1N1CCN(c2ccc(NC(=O)C3CCCCC3C(=O)O)cc2)CC1 (configuration not stated) | inconclusive: 10 µM [inhibitor, partial curve, poor fit] | –
70 | COCCNC(=O)c1ccccc1NS(=O)(=O)c1ccc(Br)s1 | inconclusive: 89.1 µM [inhibitor, partial curve, poor fit] | –
71 | CC(=O)N1CCN(c2ccc(NC(=O)/C=C/c3ccccc3)cc2)CC1 | – | inactive: 18.9%
72 | Cc1ccc(NC(=O)CSc2nnc(CN3CCOCC3)n2-c2ccccc2)cc1 | – | inactive: -47.4%
